From patent US20250230255A1 (BIOTHEUS, published 2025) come the findings set out here.

Read-outs that look alike come from different tables or passages of the source.

The target of test [1] is T1, human CD39 (recombinant protein in solution) (human, UniProt P49961 38-478, limits assumed).
T1 construct: also called soluble human CD39; soluble CD39
T1 sequence: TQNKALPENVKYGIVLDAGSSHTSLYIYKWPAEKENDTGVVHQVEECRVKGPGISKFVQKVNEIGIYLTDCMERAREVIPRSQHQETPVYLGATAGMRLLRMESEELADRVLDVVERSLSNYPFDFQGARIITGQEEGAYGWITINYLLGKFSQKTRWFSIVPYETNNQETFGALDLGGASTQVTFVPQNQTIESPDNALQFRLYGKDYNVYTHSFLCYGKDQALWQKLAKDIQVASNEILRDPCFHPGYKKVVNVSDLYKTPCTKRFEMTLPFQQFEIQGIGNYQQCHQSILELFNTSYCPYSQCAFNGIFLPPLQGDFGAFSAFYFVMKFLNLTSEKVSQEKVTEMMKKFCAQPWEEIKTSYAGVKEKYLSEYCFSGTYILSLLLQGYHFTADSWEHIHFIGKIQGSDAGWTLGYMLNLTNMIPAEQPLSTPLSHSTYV
The experiment in a line: BLI (ForteBio), method of Example 3, human CD39 in solution. As to the method: (§1) ForteBio affinity test was conducted according to the existing methods (Estep, P et al., High throughput solution based measurement of antibody-antigen affinity and affinity binding. MAbs, 2013.5 (2): p. 270-8). In short, the sensor is balanced offline in the analysis buffer for 30 min, and then tested online for 60 s to establish baseline. After that, the AHQ sensor is online loaded with the above-obtained purified antibody, and put into 100 nM human CD39 (SEQ ID NO: 28) for 5 min, and then transferred the sensor to PBS for dissociation for 5 min. A 1:1 binding model is used for the dynamic analysis.

The next test concerns the target T2, cynomolgus PD-1 on cells (cynomolgus, UniProt Q15116 25-288 (human entry)).
T2 construct: also called CHO-cynoPD1 cell
T2 chain: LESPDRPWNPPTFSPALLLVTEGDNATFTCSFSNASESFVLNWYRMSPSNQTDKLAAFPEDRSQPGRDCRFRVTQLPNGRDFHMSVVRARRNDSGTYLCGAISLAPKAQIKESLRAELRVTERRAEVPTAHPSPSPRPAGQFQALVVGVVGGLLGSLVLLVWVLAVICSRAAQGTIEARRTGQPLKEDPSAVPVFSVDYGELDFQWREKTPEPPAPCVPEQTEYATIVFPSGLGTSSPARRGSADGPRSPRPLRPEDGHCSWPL
The test is described as follows: flow cytometry on CHOS cells overexpressing cynomolgus PD1, median fluorescence intensity PE-A. In general terms: Flow cytometry measures light scatter and fluorescence of single cells or particles in a stream.

The target in a further test is T3, human PD-1 on cells (human, UniProt Q15116 25-288).
T3 construct: also called CHO-hPD1 cell
The experiment in a line: flow cytometry on CHOS cells overexpressing human PD1, median fluorescence intensity PE-A.

Test [2] concerns the target T4, cynomolgus CD39 on cells (cynomolgus, UniProt P49961 6-510 (human entry)).
T4 construct: also called cyCD39; CHO-cyCD39 cells
T4 chain: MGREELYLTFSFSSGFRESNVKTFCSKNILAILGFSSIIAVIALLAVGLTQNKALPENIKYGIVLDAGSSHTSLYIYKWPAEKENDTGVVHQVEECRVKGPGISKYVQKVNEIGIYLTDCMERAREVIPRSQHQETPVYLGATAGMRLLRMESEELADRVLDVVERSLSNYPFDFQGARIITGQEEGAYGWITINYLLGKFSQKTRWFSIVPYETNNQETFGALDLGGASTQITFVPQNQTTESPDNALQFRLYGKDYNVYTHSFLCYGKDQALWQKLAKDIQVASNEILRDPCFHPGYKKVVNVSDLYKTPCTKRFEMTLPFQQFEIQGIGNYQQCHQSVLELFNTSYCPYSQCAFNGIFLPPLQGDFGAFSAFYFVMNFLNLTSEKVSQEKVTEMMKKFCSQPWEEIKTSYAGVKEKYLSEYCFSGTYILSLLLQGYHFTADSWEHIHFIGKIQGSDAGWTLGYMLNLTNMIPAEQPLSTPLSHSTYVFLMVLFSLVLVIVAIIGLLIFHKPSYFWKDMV
The test is described as follows: flow cytometry on CHO-cyCD39 cells, median fluorescence intensity PE-A.

Test [3] has as its target T5, human CD39 on cells (human, UniProt P49961 1-510).
T5 construct: also called CHO-hCD39 cells; huCD39 overexpression cells
T5 sequence: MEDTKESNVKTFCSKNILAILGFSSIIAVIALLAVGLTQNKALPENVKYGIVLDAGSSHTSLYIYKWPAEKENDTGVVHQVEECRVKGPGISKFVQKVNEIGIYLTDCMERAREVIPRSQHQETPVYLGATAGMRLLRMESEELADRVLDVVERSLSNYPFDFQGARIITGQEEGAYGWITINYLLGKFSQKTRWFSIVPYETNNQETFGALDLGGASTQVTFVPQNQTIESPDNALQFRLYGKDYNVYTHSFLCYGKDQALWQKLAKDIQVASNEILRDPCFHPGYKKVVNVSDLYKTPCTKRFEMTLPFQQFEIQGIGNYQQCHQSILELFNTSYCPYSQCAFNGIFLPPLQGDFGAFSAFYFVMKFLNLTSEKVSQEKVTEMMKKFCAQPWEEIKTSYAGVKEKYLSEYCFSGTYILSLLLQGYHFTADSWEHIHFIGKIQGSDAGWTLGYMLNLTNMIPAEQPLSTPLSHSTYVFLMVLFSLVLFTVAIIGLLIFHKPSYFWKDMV
The experiment in a line: flow cytometry on CHO-hCD39 cells, median fluorescence intensity PE-A.

The target of test [4] is T5, human CD39 on cells. The test is described as follows: flow cytometry on CHO-hCD39 cells, MFI titration.
For test [5], the target named is T4, cynomolgus CD39 on cells. The experiment in a line: flow cytometry on CHO-cyCD39 cells, MFI titration.
The target of test [6] is T5, human CD39 on cells. The experiment in a line: cell-based or functional assay.
Test [7] deals with T1, human CD39 (recombinant protein in …). The experiment in a line: cell-based or functional assay.
The target is the same in test [8]. The experiment in a line: BLI (ForteBio), method of Example 3, human CD39 in solution. As to the method: as §1
The humanized sequences are subjected to the humanized antibody vector construction, expression and purification according to the method described in Example 2. […] The purified humanized antibodies were subjected to the affinity test at protein level according to the method described in Example 3.
This is another data set of the same source. (Biolayer interferometry detects binding as a change in optical thickness at a sensor tip.)

Test [9] shares this target. The test is described as follows: cell-based or functional assay. The source holds these as a separate data set.
Test [10] deals with T4, cynomolgus CD39 on cells. The experiment in a line: flow cytometry on CHO-cyCD39 cells, MFI titration.
The target in test [11] is T5, human CD39 on cells. The test is described as follows: cell-based or functional assay. The source holds these as a separate data set.
The target in test [12] is T5, human CD39 on cells. The test is described as follows: flow cytometry on CHO-hCD39 cells, MFI titration. This is another data set of the same source.
In test [13] the target is T1, human CD39 (recombinant protein in …). The experiment in a line: BLI (ForteBio), antibody loaded on AHQ sensor, 100 nM human CD39 in solution, 1:1 model. As to the method:
as §1

Test [14] has as its target T5, human CD39 on cells. The experiment in a line: cell-based or functional assay. This is another data set of the same source.
The target of test [15] is T1, human CD39 (recombinant protein in …). The test is described as follows: cell-based or functional assay. The source holds these as a separate data set.
Test [16] has as its target T5, human CD39 on cells. The experiment in a line: cell-based or functional assay. This is another data set of the same source.
Test [17] has as its target T5, human CD39 on cells. The test is described as follows: cell-based or functional assay. This is another data set of the same source.
In test [18] the target is T5, human CD39 on cells. The experiment in a line: cell-based or functional assay. This is another data set of the same source.

human PD-1 on cells, sequence (Q15116 25-288 limits assumed): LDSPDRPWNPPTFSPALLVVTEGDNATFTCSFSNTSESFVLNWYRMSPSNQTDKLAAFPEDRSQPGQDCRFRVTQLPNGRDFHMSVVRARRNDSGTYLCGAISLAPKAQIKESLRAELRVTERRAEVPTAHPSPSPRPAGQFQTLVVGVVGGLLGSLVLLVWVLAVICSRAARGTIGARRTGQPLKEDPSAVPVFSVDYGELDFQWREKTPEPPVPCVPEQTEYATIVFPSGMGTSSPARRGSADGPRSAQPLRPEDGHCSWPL

B1: Fc-37-46 (bispecific antibody)
chain: [human IgG1 Fc with changes cut from this listing]GGGGAGGGGAGGGGAGGGGAEVQLLESGGGLVQPGGSLRLSCAVSRGTFSEYSMSWFRQAPGKEREFVTAISGFGHITHYADSVKGRFTISRDNSKNTVYLQMNSLRAEDTAVYYCAAAWQTSPRRMMQMAGSITWGQGTQVTVSSGGGGAGGGGAGGGGAGGGGAGGGGAGGGGAGGGGAEVQLLESGGGLVQPGGSLRLSCAASGDIFSINYMSWYRQAPGNERELVAAITGRGNTNYADSVKGRFTISRDNSKNTVYLQMNSLRAEDTAVYYCNAWDYSDADEGPLREYDYWGQGTQVTVSSA
notes: also called bi-epitopic anti-CD39 antibody with Fc-C-terminal structure
By Kd is commonly meant the equilibrium constant for the complex coming apart. Broadly, the koff is the first-order rate constant of dissociation. As usually defined, the kon is the rate constant with which the complex forms. The EC50 (read off the curve) is the concentration that produces a half-maximal response. The low end stands for a more potent agent, the high end for a less potent agent. Consider B1, for which the Kd in test [1] was 0.374 nM. For the same molecule, the koff in test [1] amounted to 0.000114 s⁻¹. Moreover, in test [1], the kon came to 305000 M⁻¹ s⁻¹. The binding result with cynomolgus PD-1 on cells and with human PD-1 on cells was “no binding (tested: 200 nM)” in each case. The “EC50 (read off the curve)” value with cynomolgus CD39 on cells [2] and in the test with human CD39 on cells [3] was about 20 nM in each case.

B2: R-Ye-19(1)-037 (Fc fusion)
chain: QVQLQESGGGLVQAGGSLRLACTVSRGTFSEYSMGWFRQAPGQERDFVTAISGFGHITHYADSVKGRFTISRDNAANTVYLQMNTLKPEDTAVYYCAAAWQTSPRRMMQMAGSITWGQGTQVTVSS[human IgG1 Fc with changes cut from this listing]
notes: also called anti-CD39 nanobody
A word on the EC50: it is the concentration that produces a half-maximal response. High values mean a less potent agent, low ones a more potent agent. Take B2: the Kd in test [1] amounted to 6.81 nM; in test [8] it was 3.5 nM. For the same molecule, the koff in test [1] is 0.00197 s⁻¹; in test [8], 0.00108 s⁻¹; in [13] it was about 0.00121 s⁻¹. The results for the kon in test [1], in test [8] and in test [13] were 289000 M⁻¹ s⁻¹, 311000 M⁻¹ s⁻¹ and 125000 M⁻¹ s⁻¹, respectively. Also, the EC50 with human CD39 on cells [4] stood at 7.7 nM; with cynomolgus CD39 on cells [5] it was 5.13 nM; with cynomolgus CD39 on cells [10], 4.94 nM; with human CD39 on cells [12], 7.22 nM. In the test with human CD39 on cells [6], the “EC50 of blocking CD39 enzyme activity in human CD39 overexpression cells (ATP, CellTiter-Glo)” value is 36.5 nM. Further, the “EC50 of blocking enzyme activity of soluble CD39” value in test [7] was 3.15 nM. Also, the “EC50 of blocking enzyme activity of soluble human CD39” value (shortened to “EC50 … of soluble human CD39”) in [9] is 18.6 nM. Also, the “EC50 of blocking CD39 enzyme activity of human CD39 overexpression cells” value (from here on “EC50 … of human CD39 overexpression cells”) with human CD39 on cells [11] stood at 3.79 nM. Further, in the test with human CD39 on cells [14], the “EC50 of blocking CD39 enzyme activity in PBMC system” value (“EC50 … in PBMC system” below) was determined as 4.95 nM.

B3: HZ-R-Ye-19(1)-046-2 (Fc fusion)
chain: EVQLLESGGGLVQPGGSLRLSCAASGDIFSINYMSWYRQAPGNERELVAAITGRGNTNYADSVKGRFTISRDNSKNTVYLQMNSLRAEDTAVYYCNAWDYSDADEGPLREYDYWGQGTQVTVSS[human IgG1 Fc with changes cut from this listing]
Take B3: the figures for the “EC50 … of soluble human CD39” value in test [15] and in test [9] were 12.4 nM and 19.7 nM, respectively. Also, the EC50 amounted to 1.55 nM with human CD39 on cells [4] and 3.98 nM with cynomolgus CD39 on cells [10]. Besides, the “EC50 … of human CD39 overexpression cells” value with human CD39 on cells [16] was 1.01 nM; with human CD39 on cells [11], 0.549 nM. Besides, the results for the “EC50 … in PBMC system” value with human CD39 on cells [17] and with human CD39 on cells [14] were 0.565 nM and 0.0288 nM, respectively. For the same molecule, the Kd in test [8] came to 3.4 nM. Further, in test [8], the koff was 0.000829 s⁻¹. Besides, the kon in [8] worked out at 247000 M⁻¹ s⁻¹.

B4: R-Ye-19(1)-046 (Fc fusion)
chain: QVQLQESGGGLVQTGRSLRLSCAASGDIFSINYMGWYRQAPGNERELVAAITGRGNTNYADSVKGRFTISRDNAKNTVYLQMNSLKPEDTAVYYCNAWDYSDYDEGPLREYDYWGQGTQVTVSS[human IgG1 Fc with changes cut from this listing]
notes: as for B2
With B4, the Kd stood at 2.72 nM in test [1], 0.63 nM in [8] and 1.24 nM in test [13]. Also, the koff in [1] worked out at 0.00094 s⁻¹; in test [8], 0.000181 s⁻¹; in test [13], 0.000529 s⁻¹. In addition, the kon in test [1] was 346000 M⁻¹ s⁻¹; in test [8], 289000 M⁻¹ s⁻¹; in [13], 421000 M⁻¹ s⁻¹. Besides, the results for the “EC50 … in PBMC system” value with human CD39 on cells [18] and in the test with human CD39 on cells [14] were 13.8 nM and 2.04 nM, respectively. The EC50 was 5.96 nM in the test with human CD39 on cells [4], 6 nM with cynomolgus CD39 on cells [5], 3.03 nM with cynomolgus CD39 on cells [10] and 5.14 nM with human CD39 on cells [12]. In the test with human CD39 on cells [6], the “EC50 of blocking CD39 enzyme activity in human CD39 overexpression cells (ATP, CellTiter-Glo)” value was 13.8 nM. Besides, the “EC50 of blocking enzyme activity of soluble CD39” value in test [7] came to 2.48 nM. Besides, the “EC50 … of soluble human CD39” value in test [9] was 16.6 nM. Further, the “EC50 … of human CD39 overexpression cells” value with human CD39 on cells [11] amounted to 2.87 nM.
